According to the supplement of paper PMC12217912:
This is one part of the list. The full chains were built here from the parent and the listed change. Values near 0.05 are background.

B1: TEV protease; numbered along this chain (parent)
chain: MGESLFKGPRDYNPISSSICHLTNESDGHTTSLYGIGFGPFIITNKHLFRRNNGTLVVQSLHGVFKVKDTTTLQQHLVDGRDMIIIRMPKDFPPFPQKLKFREPQREERICLVTTNFQTKSMSSMVSDTSCTFPSGDGIFWKHWIQTKDGQCGSPLVSTRDGFIVGIHSASNFTNTNNYFTSVPKNFMELLTNQEAQQWVSGWRLNADSVLWGGHKVFMVKPEEPFQPVKEATQL

Variants of: B1
Experiment: raw area under fraction-flipped curve 0-4 h after induction (AUC4h, not background-subtracted), DNA-recorder readout of cleavage of the substrate (dimensionless); higher = more cleavage of the substrate by the protease variant
Details: temperature: 34 °C; time window: 0-4 h after rhamnose induction
Method: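 In vivo DNA recorder in E. coli TOP10(DE3) ΔrhaA at 34 °C. Each TEVp single-site mutant (parent TEVp 0) is paired with a single-site variant of the 7-mer TEVs (canonical ENLYFQ|S). The substrate sits between flexible linkers in a Bxb1-sfGFP-TEVs-SsrA fusion, so cleavage stabilises Bxb1 and speeds flipping of a recombination array, read by NGS. The value is the raw area under the fraction-flipped curve over 0-4 h after rhamnose induction (AUC4h), with ≥20 reads per time point. It is not background-subtracted; inactive controls average about 0.047.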
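Further: Bxb1 expression induced with 0.2% (w/v) L-rhamnose at OD600 near 0.5, cultures sampled hourly, flipped fraction per protease–substrate barcode pair counted by paired-end Illumina sequencing.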

Row | Variant | area with substrate ENLYFAS | area with substrate ENLYFCS | area with substrate ENLYFDS | area with substrate ENLYFES | area with substrate ENLYFFS | area with substrate ENLYFHS | area with substrate ENLYFIS | area with substrate ENLYFLS | area with substrate ENLYFMS | area with substrate ENLYFPS | area with substrate ENLYFTS | area with substrate ENLYFWS | area with substrate ENLYFYS | area with substrate ENLYFGS | area with substrate ENLYFKS | area with substrate ENLYFNS | area with substrate ENLYFSS | area with substrate ENLYFVS | area with substrate ENLYFRS
1 | K68A | 0.055 | 0.0679 | 0.067 | 0.0489 | 0.0554 | 0.0619 | 0.0608 | 0.0644 | 0.0667 | 0.0458 | 0.0552 | 0.0656 | 0.0477 |  |  |  |  |  | 
2 | K68I | 0.0693 | 0.0618 |  | 0.0682 | 0.0657 | 0.0736 | 0.0617 | 0.0193 | 0.0647 | 0.0615 | 0.0561 | 0.0411 |  | 0.0753 | 0.0573 | 0.0561 | 0.0599 | 0.0575 | 
3 | K68Y | 0.0533 | 0.0574 | 0.0519 |  | 0.0552 |  | 0.0505 | 0.0559 | 0.0662 | 0.0673 | 0.0601 |  | 0.0507 | 0.0594 |  |  | 0.0681 |  | 0.0484
4 | D69S | 0.0622 | 0.0542 | 0.0544 | 0.0667 | 0.0685 |  | 0.0513 |  | 0.0581 | 0.0611 | 0.0551 | 0.0589 | 0.0469 |  | 0.0574 | 0.0675 |  | 0.0423 | 
5 | T70L | 0.0703 |  |  | 0.0615 | 0.0797 |  |  | 0.0703 | 0.0551 |  | 0.059 | 0.0613 | 0.0514 | 0.0522 | 0.069 |  |  | 0.0522 | 
6 | T71V | 0.0641 | 0.0576 | 0.06 | 0.0579 | 0.0521 |  | 0.0533 | 0.0631 | 0.0601 | 0.0403 | 0.0533 | 0.0521 |  | 0.0548 | 0.0562 | 0.0486 | 0.0504 | 0.0614 | 
7 | Q75W | 0.0569 |  |  | 0.055 | 0.0578 | 0.0564 | 0.057 |  | 0.0435 | 0.0721 |  | 0.0541 |  |  | 0.0697 | 0.0535 | 0.0663 | 0.0508 | 0.0551
8 | H76L | 0.0806 | 0.0686 |  | 0.066 | 0.0683 | 0.0622 | 0.052 |  | 0.07 | 0.0601 | 0.056 |  | 0.0527 |  | 0.0396 | 0.0775 |  | 0.0547 | 0.0503
9 | H76M | 0.065 | 0.0572 |  |  | 0.0753 |  |  | 0.0608 | 0.0517 | 0.0686 |  | 0.0737 | 0.057 |  |  |  |  |  | 
10 | D79F | 0.0469 | 0.0552 |  | 0.0577 | 0.0646 |  | 0.0491 |  |  | 0.0587 | 0.056 | 0.0495 | 0.0351 |  | 0.0656 | 0.0739 |  |  | 0.0598
11 | D79M | 0.0523 |  | 0.0585 | 0.0685 | 0.0605 |  | 0.0596 | 0.0717 | 0.0581 | 0.0472 |  | 0.0442 | 0.0613 |  | 0.0601 | 0.0647 |  |  | 0.0558
12 | D79S | 0.0483 | 0.0593 | 0.0645 | 0.0609 | 0.0593 |  | 0.048 | 0.0553 | 0.0823 | 0.0616 | 0.0504 | 0.0564 | 0.0572 | 0.05 | 0.0613 |  |  |  | 0.0552
13 | D82H | 0.0508 | 0.0795 |  | 0.0724 | 0.0727 |  | 0.0563 | 0.0605 | 0.0484 | 0.0606 |  | 0.0518 |  | 0.0456 | 0.0581 |  |  | 0.0478 | 
14 | D82L | 0.0282 | 0.0669 |  |  | 0.0539 | 0.0513 | 0.0636 | 0.0527 | 0.0436 | 0.06 | 0.0423 |  | 0.0493 |  |  | 0.045 | 0.0697 |  | 0.0576
15 | I84A | 0.0608 | 0.0555 |  | 0.0541 | 0.0709 |  | 0.0571 |  | 0.0594 | 0.052 | 0.066 |  |  | 0.0751 |  | 0.0727 |  |  | 
16 | I84S | 0.0635 | 0.0458 | 0.0615 | 0.0695 | 0.0735 | 0.0375 | 0.0537 | 0.0511 | 0.0379 | 0.065 | 0.0662 | 0.0545 | 0.0592 | 0.0399 | 0.0568 | 0.0604 | 0.0521 | 0.0456 | 0.0596
17 | I85Y | 0.0527 | 0.0616 | 0.0603 | 0.0715 |  |  | 0.0506 |  |  | 0.0441 | 0.0602 | 0.0646 | 0.0446 |  | 0.0669 | 0.0517 |  |  | 
18 | R87H | 0.0633 |  |  | 0.0698 | 0.0593 |  | 0.0716 |  | 0.0565 | 0.0488 |  | 0.0421 |  |  |  |  | 0.0724 |  | 0.0564
19 | P89Y | 0.0553 | 0.049 | 0.0497 | 0.0414 | 0.0632 | 0.0458 | 0.0423 |  | 0.0581 | 0.0273 | 0.0368 | 0.0515 | 0.0515 | 0.0697 | 0.0581 | 0.0561 | 0.0572 |  | 
20 | K90G | 0.117 |  | 0.062 | 0.0481 | 0.0613 |  | 0.0683 | 0.063 | 0.0558 |  | 0.0693 | 0.0604 |  | 0.0608 |  | 0.0678 |  | 0.0617 | 
21 | K90V | 0.0645 | 0.0511 | 0.0616 |  | 0.0473 | 0.0539 | 0.0586 |  | 0.0572 | 0.0583 | 0.0524 |  | 0.0546 | 0.0499 |  |  | 0.0617 | 0.0587 | 
22 | P94W | 0.0614 | 0.0598 | 0.0342 | 0.0655 | 0.0602 | 0.058 | 0.0568 |  | 0.0382 | 0.0578 | 0.0654 | 0.0608 | 0.0708 | 0.0708 | 0.0674 |  |  | 0.057 | 
23 | F95A | 0.0607 |  |  |  |  | 0.0591 | 0.043 | 0.0576 | 0.0638 | 0.0556 |  | 0.0543 | 0.0773 |  |  |  | 0.0639 |  | 0.0469
24 | Q97A | 0.0641 | 0.0692 | 0.0603 | 0.0787 | 0.0773 |  | 0.0599 | 0.0711 | 0.0694 | 0.0741 | 0.0491 | 0.0655 | 0.0574 | 0.0633 |  |  |  | 0.0055 | 
25 | K98F | 0.0579 |  |  |  |  |  | 0.0615 |  |  | 0.0673 | 0.0561 |  |  |  |  |  |  |  | 0.073
26 | K98N | 0.0678 | 0.0597 | 0.0545 | 0.0473 | 0.0616 | 0.0526 | 0.0572 | 0.0653 | 0.0632 | 0.0621 |  |  | 0.0672 | 0.0539 | 0.066 | 0.0578 |  |  | 0.0716
27 | K98P | 0.0611 | 0.0633 | 0.0562 | 0.059 | 0.061 | 0.0571 | 0.0551 | 0.0674 | 0.0566 | 0.0549 | 0.104 | 0.0651 | 0.0563 | 0.0607 | 0.0622 | 0.0684 | 0.0494 |  | 
